From the BET-seq Pho4 binding data (Le et al. 2018)
Some of the results follow. The energies were worked out here from pooled read counts, against the library average; single values are noisy.

What follows are sequences tested against T1, Pho4 (S. cerevisiae) (UniProt P07270) (assay: relative binding free energy (BET-seq); higher = weaker binding). Settings: reference: library average.
T1 sequence: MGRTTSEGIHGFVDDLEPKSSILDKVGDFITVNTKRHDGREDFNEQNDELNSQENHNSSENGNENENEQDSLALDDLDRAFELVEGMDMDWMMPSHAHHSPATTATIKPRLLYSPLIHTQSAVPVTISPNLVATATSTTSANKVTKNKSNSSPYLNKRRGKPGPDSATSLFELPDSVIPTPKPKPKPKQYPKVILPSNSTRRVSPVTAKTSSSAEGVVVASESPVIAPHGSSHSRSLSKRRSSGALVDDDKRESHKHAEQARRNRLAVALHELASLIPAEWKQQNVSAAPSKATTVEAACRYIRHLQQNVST

Sequence	relative binding free energy
CTGATCACGTGAAGTT	0.27 kcal/mol
CTTTTCACGTGTGCGT	0.32 kcal/mol
TGGTCCACGTGGGGTA	-0.23 kcal/mol
TAAGTCACGTGGTGTC	0.14 kcal/mol
AAGGTCACGTGATTAG	0.3 kcal/mol
TCATGCACGTGGTGGT	-0.07 kcal/mol
ACTTTCACGTGAGGTT	0.49 kcal/mol
TAGTACACGTGGGCGT	-0.06 kcal/mol
CGTTGCACGTGGTTTC	0.01 kcal/mol
GCTTGCACGTGGACGT	0.23 kcal/mol
AGAGTCACGTGTTAAA	0.18 kcal/mol
CGGTGCACGTGGCTTT	-0.07 kcal/mol
CGTATCACGTGGAGGT	0.08 kcal/mol
AATAGCACGTGTTGGA	-0.11 kcal/mol
GCCTTCACGTGTTGTG	0.3 kcal/mol
TACAGCACGTGTTGTG	-0.11 kcal/mol
ATTAACACGTGGGGAA	-0.15 kcal/mol
AATTCCACGTGTTGTG	-0.06 kcal/mol
GGGGGCACGTGCCGTA	-0.06 kcal/mol
GGTGTCACGTGTAGGG	0.09 kcal/mol
GTGAGCACGTGGGTGC	-0.16 kcal/mol
AAGAGCACGTGGTGTT	-0.27 kcal/mol
TAGAGCACGTGATTGG	-0.03 kcal/mol

Sequence	relative binding free energy
GAGGGCACGTGTAGAG	-0.04 kcal/mol
GGAGTCACGTGATAAT	0.4 kcal/mol
TTTGCCACGTGTTCGT	-0.12 kcal/mol
GGATTCACGTGCAGTT	0.27 kcal/mol
TGTTCCACGTGGGTTA	-0.11 kcal/mol
GGGTTCACGTGAGCGG	0.39 kcal/mol
TCGGGCACGTGAGGCT	0.08 kcal/mol
AGGGGCACGTGTGGGG	-0.01 kcal/mol
CGATGCACGTGGGGAT	-0.05 kcal/mol
ATGTGCACGTGGGACT	-0.2 kcal/mol
AAAGTCACGTGAGTAT	0.24 kcal/mol
CAAGTCACGTGGCGGT	0.18 kcal/mol
TGCGTCACGTGTTATA	0.06 kcal/mol
TTGTGCACGTGGTTTA	-0.05 kcal/mol
GGTGGCACGTGGTGAT	-0.05 kcal/mol
CGCGTCACGTGGTGAG	-0.06 kcal/mol
GCTAACACGTGTGTTG	0.07 kcal/mol
TGTGTCACGTGGCTTT	0.01 kcal/mol
TTTGACACGTGGTCAG	-0.1 kcal/mol
GTCTTCACGTGTAGGT	0.22 kcal/mol
TGAGACACGTGGGCGT	-0.14 kcal/mol
TTGCGCACGTGAGATG	0.28 kcal/mol
ATACGCACGTGGAGTT	-0.02 kcal/mol

Sequence	relative binding free energy
TATTGCACGTGTGATA	-0.09 kcal/mol
GTCTGCACGTGGAGTT	0 kcal/mol
TAGTTCACGTGTCTAG	0.39 kcal/mol
TTATGCACGTGGCGTT	-0.13 kcal/mol
AGGGTCACGTGGGTGT	0.07 kcal/mol
GAGCTCACGTGTTGGG	0.26 kcal/mol
ACGGGCACGTGTCGTG	-0.14 kcal/mol
GGCGACACGTGGGATG	-0.08 kcal/mol
TTGAGCACGTGGGTAT	-0.2 kcal/mol
GTGCTCACGTGAGGGC	0.33 kcal/mol
GGGGCCACGTGTAGGA	0.03 kcal/mol
ATGAGCACGTGAAAGG	0.03 kcal/mol
GATTGCACGTGCTCGG	0 kcal/mol
AAGGTCACGTGCTGTG	0.18 kcal/mol
GTATGCACGTGGCGCG	-0.2 kcal/mol
GCAGGCACGTGGAGGG	-0.07 kcal/mol
GATTTCACGTGCGGGG	0.31 kcal/mol
GTACTCACGTGTTGGT	0.16 kcal/mol
AAAGGCACGTGTAAAG	0.08 kcal/mol
CAGTTCACGTGGAGTG	0.27 kcal/mol
GAGGGCACGTGGATGT	-0.06 kcal/mol
TTGTTCACGTGGCTAT	0.21 kcal/mol
TCGGTCACGTGGATAT	0.19 kcal/mol

Sequence	relative binding free energy
TAGTTCACGTGGTAGC	0.26 kcal/mol
ATGAGCACGTGCATTT	-0.07 kcal/mol
TAGTACACGTGGGCTA	-0.13 kcal/mol
GCGGTCACGTGATGGT	0.2 kcal/mol
GGGCTCACGTGGGGAG	0.21 kcal/mol
TAAGACACGTGGGGTA	-0.06 kcal/mol
TTTAGCACGTGAGGAG	0.18 kcal/mol
ATCGGCACGTGATGTT	0 kcal/mol
CTGAGCACGTGTGGTA	0 kcal/mol
GTAGACACGTGATGGA	0.16 kcal/mol
TAGAACACGTGGCGTG	-0.04 kcal/mol
GGCTTCACGTGTAGTG	0.12 kcal/mol
TACTTCACGTGATGTT	0.29 kcal/mol
ATATACACGTGATAGT	-0.01 kcal/mol
TACTTCACGTGGGAGG	0.02 kcal/mol
GTGGGCACGTGGAGCG	-0.1 kcal/mol
AAGAGCACGTGTAGGT	-0.14 kcal/mol
ATCTTCACGTGGTAAG	0.31 kcal/mol
GTAATCACGTGGCATT	0.13 kcal/mol
CGTGACACGTGTTGGG	0.02 kcal/mol
TAGTTCACGTGTAGTT	0.28 kcal/mol
GAGGACACGTGATTTG	0.2 kcal/mol
GCATGCACGTGAAGGG	0.33 kcal/mol

Sequence	relative binding free energy
AGTCCCACGTGGGTGT	-0.24 kcal/mol
AGTGGCACGTGAAGTT	0.18 kcal/mol
TTTTTCACGTGACATA	0.23 kcal/mol
TCTGTCACGTGGTTAT	-0.05 kcal/mol
TGCGTCACGTGAATTT	0.32 kcal/mol
CGATTCACGTGTTGTG	0.26 kcal/mol
CAGTACACGTGAGGTG	0.3 kcal/mol
TGTTCCACGTGAGTGA	0.12 kcal/mol
AATCGCACGTGGGATT	-0.05 kcal/mol
GCGCGCACGTGGTGGG	-0.12 kcal/mol
GCGCGCACGTGTGGTT	0.02 kcal/mol
GGTTTCACGTGTTCAA	0.12 kcal/mol
AGGCGCACGTGAGGTG	0.11 kcal/mol
TGGGCCACGTGTTATG	-0.13 kcal/mol
TGTATCACGTGGCAGT	0.1 kcal/mol
GTTGTCACGTGGCTAG	0.09 kcal/mol
TTGGTCACGTGCCTGT	0.01 kcal/mol
TGTCCCACGTGGGTGT	-0.18 kcal/mol
GAAATCACGTGTTGTG	0.18 kcal/mol
TGGGTCACGTGAAGGA	0.27 kcal/mol
GGCTGCACGTGTCAGT	0.16 kcal/mol
GTGTTCACGTGTGGCC	0.32 kcal/mol
GATATCACGTGGTTGA	0.19 kcal/mol
